For 28 compounds, cytotoxicity call and growth inhibition call results are on record in the antibiotic and cytotoxicity screens of Wong et al. (2023).

The structures appear in SMILES notation. This is one part of the list.

One assay has as its system HSkMC. Description: cytotoxicity call (relative viability < 0.9). The settings on record: 10 µM.
In another assay the test system is HepG2. Description: cytotoxicity call (relative viability < 0.9). The settings on record: 10 µM.
Another assay deals with S. aureus RN4220. Nature of the assay: growth inhibition call (relative growth <= 0.2). The settings on record: 50 µM.

With `COc1ccc(NC(=O)N(C)C[C@H]2OCCCC[C@H](C)Oc3ccc(NC(=O)NC(C)C)cc3C(=O)N([C@H](C)CO)C[C@@H]2C)cc1`, the cytotoxicity call in the assay on HSkMC and in the assay with HepG2 was “inactive” throughout. Also, the growth inhibition call with S. aureus RN4220 was “inactive”.
`O=C(C[C@@H]1CC[C@H]2[C@@H](COC[C@H](O)CN2C(=O)c2ccccc2)O1)N1CCOCC1`: the cytotoxicity call in the assay with HSkMC and with HepG2 was “inactive” each time. Also, the growth inhibition call with S. aureus RN4220 is “inactive”.
With `C[C@@H]1CN([C@@H](C)CO)C(=O)c2cccc(NS(C)(=O)=O)c2O[C@@H]1CN(C)Cc1ccc2c(c1)OCO2`, the cytotoxicity call with HSkMC and in the assay on HepG2 was “inactive” in each case. In addition, the growth inhibition call in the assay on S. aureus RN4220 was “inactive”.
`C[C@H]1CN([C@@H](C)CO)C(=O)c2cc(C#CC3(O)CCCC3)cnc2O[C@@H]1CN(C)C(=O)Cc1cccnc1`: the cytotoxicity call in the assay with HSkMC and in the assay with HepG2 was “inactive” in each case. Besides, the growth inhibition call in the assay on S. aureus RN4220 was “inactive”.
Turning to `C[C@@H]1CN([C@@H](C)CO)C(=O)Cc2cc(NC(=O)CCCN(C)C)ccc2O[C@H]1CN(C)Cc1ccncc1`, the cytotoxicity call in the assay with HSkMC and in the assay on HepG2 was “inactive” in each case. Moreover, the growth inhibition call in the assay on S. aureus RN4220 was “inactive”.
Regarding `COc1ccc(C#Cc2ccc3c(c2)[C@]2(C(=O)N3)[C@H](c3ccc(O)cc3)N3[C@H](c4ccccc4)[C@H](c4ccccc4)OC(=O)[C@H]3[C@@H]2C(=O)N2CCN(c3ncccn3)CC2)cc1`, the cytotoxicity call in the assay on HSkMC and in the assay with HepG2 was “inactive” in each case. Also, the growth inhibition call with S. aureus RN4220 is “inactive”.
As for `COC(=O)CC1(N)CCCCC1`, the cytotoxicity call in the assay on HSkMC and in the assay on HepG2 was “inactive” throughout. For the same compound, the growth inhibition call with S. aureus RN4220 was “inactive”.
Consider `CS(=O)(=O)N1CCn2cc(Cn3cccn3)nc2C1`, for which the cytotoxicity call in the assay with HSkMC and with HepG2 was “inactive” in each case. Further, the growth inhibition call in the assay with S. aureus RN4220 is “inactive”.
With `C[C@@H]1CN([C@@H](C)CO)C(=O)Cc2cc(NC(=O)CCN3CCOCC3)ccc2O[C@H]1CN(C)S(=O)(=O)c1ccc(F)cc1`, the cytotoxicity call in the assay on HSkMC and in the assay on HepG2 was “inactive” in each case. Besides, the growth inhibition call in the assay on S. aureus RN4220 is “inactive”.
As for `C[C@@H]1CN([C@H](C)CO)C(=O)c2cccc(NC(=O)C3CCOCC3)c2O[C@H]1CN(C)S(=O)(=O)c1ccc(F)cc1`, the cytotoxicity call in the assay with HSkMC and in the assay on HepG2 was “inactive” in each case. The growth inhibition call with S. aureus RN4220 is “inactive”.
As for `C[C@H]1CN([C@@H](C)CO)C(=O)Cc2cc(NC(=O)Nc3cccc4ccccc34)ccc2O[C@H]1CN(C)Cc1ccncc1`, the cytotoxicity call with HSkMC and with HepG2 was “inactive” in each case. Also, the growth inhibition call in the assay on S. aureus RN4220 was “inactive”.
In the case of `C[C@H]1CN([C@@H](C)CO)S(=O)(=O)c2ccc(C#CC3CC3)cc2O[C@@H]1CN(C)C(=O)C1CCCCC1`, the cytotoxicity call in the assay with HSkMC and in the assay with HepG2 was “inactive” in each case. Moreover, in the assay with S. aureus RN4220, the growth inhibition call was “inactive”.
For the compound `COCCNC(=O)C[C@@H]1CC[C@@H]2[C@@H](COc3ccc(NS(=O)(=O)c4ccc(Cl)cc4)cc3C(=O)N2C)O1`, the cytotoxicity call in the assay on HSkMC and in the assay with HepG2 was “inactive” each time. Further, the growth inhibition call in the assay on S. aureus RN4220 was “inactive”.
As for `Cc1noc(C)c1S(=O)(=O)Nc1ccc2c(c1)C(=O)N([C@H](C)CO)C[C@H](C)[C@@H](CN(C)C(=O)Nc1cccc3ccccc13)OCCCC[C@H](C)O2`, the cytotoxicity call in the assay on HSkMC and in the assay with HepG2 was “active” each time. For the same compound, the growth inhibition call with S. aureus RN4220 was “inactive”.
Regarding `O=c1nc(C(F)(F)F)[nH]c2nc[nH]c12`, the cytotoxicity call in the assay on HSkMC and with HepG2 was “inactive” throughout. Moreover, in the assay with S. aureus RN4220, the growth inhibition call was “inactive”.
Take `O=C(C[C@@H]1CC[C@@H](NS(=O)(=O)c2ccccc2)[C@H](CO)O1)NCc1ccncn1`: the cytotoxicity call in the assay with HSkMC and in the assay with HepG2 was “inactive” each time. Moreover, the growth inhibition call with S. aureus RN4220 is “inactive”.
`C[C@@H]1CCCCO[C@H](CN(C)Cc2ccc(C(F)(F)F)cc2)[C@H](C)CN([C@@H](C)CO)C(=O)c2cc(NS(=O)(=O)c3ccccc3)ccc2O1`: in the assay with HSkMC, the cytotoxicity call is “inactive”. The cytotoxicity call in the assay with HepG2 was “active”. Also, in the assay with S. aureus RN4220, the growth inhibition call is “inactive”.
Take `Cc1ccc(S(=O)(=O)N(C)C[C@H]2OCCCC[C@H](C)Oc3ccc(NC(=O)Cc4ccccc4)cc3C(=O)N([C@H](C)CO)C[C@@H]2C)cc1`: the cytotoxicity call in the assay with HSkMC and in the assay on HepG2 was “inactive” in each case. Moreover, the growth inhibition call with S. aureus RN4220 was “inactive”.
With `COc1ccc(CCN2C(=O)[C@@]3(Cc4ccccc42)c2ccccc2C(=O)N(Cc2ccccc2)[C@H]3c2ccc(COC(=O)NCCCCCC(=O)NO)cc2)cc1`, the cytotoxicity call in the assay on HSkMC and with HepG2 was “inactive” each time. Moreover, the growth inhibition call with S. aureus RN4220 was “inactive”.
Regarding `O=C(O)c1ccno1`, the cytotoxicity call with HSkMC and in the assay with HepG2 was “inactive” each time. The growth inhibition call with S. aureus RN4220 was “inactive”.
As to `CN(C(=O)CN(CCO)CC(=O)N(C)C(C)(C)Cc1ccccc1)C(C)(C)Cc1ccccc1`, the cytotoxicity call in the assay on HSkMC is “inactive”. The cytotoxicity call with HepG2 is “active”. The growth inhibition call with S. aureus RN4220 was “active”.
`C[C@@H]1CCCCO[C@@H](CN(C)C(=O)NC2CCCCC2)[C@H](C)CN([C@@H](C)CO)C(=O)c2cc(NC(=O)CCCCCC(=O)Nc3ccccc3N)ccc2O1`: the cytotoxicity call with HSkMC and with HepG2 was “inactive” each time. The growth inhibition call in the assay with S. aureus RN4220 is “inactive”.
As for `C[C@@H]1CCCCO[C@H](CN(C)C(=O)C2CCCCC2)[C@@H](C)CN([C@H](C)CO)C(=O)c2cc(NC(=O)Nc3ccc(F)cc3)ccc2O1`, the cytotoxicity call with HSkMC and in the assay with HepG2 was “inactive” in each case. The growth inhibition call with S. aureus RN4220 is “inactive”.
Regarding `NC(=S)N[C@H]1C[C@@H]2C=C[C@H]1C2`, the cytotoxicity call in the assay on HSkMC and with HepG2 was “inactive” each time. In the assay with S. aureus RN4220, the growth inhibition call is “inactive”.
`COCC#Cc1ccc2c(c1)O[C@@H](CN(C)S(=O)(=O)c1cccc(F)c1)[C@H](C)CN([C@H](C)CO)S2(=O)=O`: the cytotoxicity call in the assay with HSkMC and with HepG2 was “inactive” throughout. In addition, the growth inhibition call in the assay on S. aureus RN4220 was “inactive”.
Take `O=C(C[C@@H]1C=C[C@H](NC(=O)Cc2ccccn2)[C@@H](CO)O1)NCCCN1CCOCC1`: the cytotoxicity call in the assay on HSkMC (human skeletal muscle cells) and with HepG2 was “inactive” each time. Moreover, the growth inhibition call in the assay on S. aureus RN4220 was “inactive”.
For the compound `Cc1noc(C)c1NC(=O)Nc1ccc2c(c1)C(=O)N([C@H](C)CO)C[C@H](C)[C@@H](CN(C)C(=O)Nc1cccc3ccccc13)OCCCC[C@@H](C)O2`, the cytotoxicity call in the assay with HSkMC and in the assay on HepG2 was “inactive” each time. In addition, the growth inhibition call with S. aureus RN4220 was “inactive”.
As to `COc1ccc(NC(=O)Nc2ccc3c(c2)C(=O)N([C@@H](C)CO)C[C@@H](C)[C@H](CN(C)C(=O)Cc2ccccc2)OCCCC[C@H](C)O3)cc1`, the cytotoxicity call with HSkMC and in the assay with HepG2 was “inactive” throughout. Further, the growth inhibition call in the assay with S. aureus RN4220 is “inactive”.
